The record followed here is the supplement of paper PMC11417369.

± gives the standard deviation of the averaged measurements. The list shows a part of the results.

This experiment deals with PfAP2-EXP AP2 domain (GST-tagged). The experiment in a line: gcPBM binding intensity (ln(normalized median fluorescence intensity)); higher = stronger DNA binding. An outline of the steps: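 Binding intensity values are the highest Masliner-normalised natural-log median intensity among replicate spots of either probe orientation. The binding step lasted 1 h in 1× PBS with 1% milk, 0.2 mg/ml BSA, 0.5% salmon testes DNA and 0.03% Triton X-100, using GST-tagged P. falciparum DNA-binding domains expressed in E. coli on an Agilent 4 × 180k array of primer-extended double-stranded 36-bp intergenic genomic probes plus negative controls. Alexa488 anti-GST antibody and a 488 nm scan detected bound protein.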
Take “TATTAACATATATAAAGTACATTAAACAACATTGTA [XGTACX_site7667]”: the “gcPBM binding intensity (ln)” value came out at 8.53 ± 0.4.

Regarding “TGTAAATTTGGCATCACACATAAATAAACATATAAA [CACACA_site4497]”, the “gcPBM binding intensity (ln)” value was 8.74 ± 0.35.

For “AAAAGAAATATTTATACACACACACTAACATATATA [CACACA_site8580]”, the “gcPBM binding intensity (ln)” value was found to be 8.73 ± 0.42.

With “TTATCATTTTAATGGTGTACTCAATAAAAACTTTAA [XGTACX_site4595]”, the “gcPBM binding intensity (ln)” value came out at 8.24 ± 0.099.

As for “TTATATATAATTACATGTACGTAGTATTATTTAAAT [XGTACX_site3418]”, the “gcPBM binding intensity (ln)” value was 8.56 ± 0.43.

With “GTGAAAAAAAACATATGTACTTATACACTAATCTAT [XGTACX_site7600]”, the “gcPBM binding intensity (ln)” value is 8.49 ± 0.35.

For “ATGTCTATAATAAGAACACACATATATTTAATTTAA [CACACA_site7394]”, the “gcPBM binding intensity (ln)” value turned out to be 8.21 ± 0.45.

For the sequence “TGGTAAAGGAGCAAGATGATAAATCTCCATAACTTT [CACACA_negctrl_site492]”, the “gcPBM binding intensity (ln)” value came out at 8.28 ± 0.6.

For the sequence “GTTGGTACCTTACTTTTACACACTTTTTTTTTTTTT [CACACA_site8441]”, the “gcPBM binding intensity (ln)” value was found to be 8.88 ± 0.59.

As for “TATATATATATGTATACACACATACAAATATGTAAA [CACACA_site9238]”, the “gcPBM binding intensity (ln)” value came out at 9.81 ± 0.16.

In the case of “CTATATTCGTTTAATAGTACATATATAACTAGACAA [XGTACX_site5770]”, the “gcPBM binding intensity (ln)” value was determined as 8.48 ± 0.37.

In the case of “ACTACATTATGTCATACATGCATACATACGTGGTTT [TGCATGCA_site732]”, the “gcPBM binding intensity (ln)” value worked out at 8.92 ± 0.3.

“CATTAAAAGTATAATTGTACTTTTCATTTATATATT [XGTACX_site7536]”: the “gcPBM binding intensity (ln)” value is 8.38 ± 0.29.

As for “AGTAATTTAAGGAATACACACAAGAAAAAAATAAGA [CACACA_site6177]”, the “gcPBM binding intensity (ln)” value amounted to 8.96 ± 0.54.

For the sequence “TAATATATATATATATGTACATATATATTATGTATA [XGTACX_site4690]”, the “gcPBM binding intensity (ln)” value amounted to 8.4 ± 0.27.

Regarding “TTCTCAAAATTAAAATAACAGATTAACGAACTAACG [CACACA_negctrl_site1720]”, the “gcPBM binding intensity (ln)” value came out at 8.56 ± 0.36.

Regarding “AGATTATTTAGAATGTGTACATATTACACATACATG [XGTACX_site8634]”, the “gcPBM binding intensity (ln)” value came to 8.51 ± 0.25.

For “CATACATACAAACACACACACACACCCATATATATA [CACACA_site2918]”, the “gcPBM binding intensity (ln)” value is 8.79 ± 0.23.

With “GTATACCTTTTGACATGTACGTATGTATATTTGGGT [XGTACX_site720]”, the “gcPBM binding intensity (ln)” value was 8.85 ± 0.42.

As to “TTTTTAACCAAACATCAAAACATATTTTTTTGTTAT [CACACA_negctrl_site385]”, the “gcPBM binding intensity (ln)” value is 8.31 ± 0.39.

Regarding “TATGTTTTTACATATTGTACATATTCTTGTAATACG [XGTACX_site1179]”, the “gcPBM binding intensity (ln)” value came to 8.46 ± 0.29.

In the case of “ATTATAATGTTAATGTGTACATATGATTCCTTAATT [XGTACX_site181]”, the “gcPBM binding intensity (ln)” value came out at 8.87 ± 0.42.

Take “TATGTGTGCAAAAACTGTACACATTAAAGGTATATA [XGTACX_site7627]”: the “gcPBM binding intensity (ln)” value came out at 8.59 ± 0.25.

“TAATAACATACAGACACACACGTAAAAGCACGTGTA [CACACA_site4299]”: the “gcPBM binding intensity (ln)” value turned out to be 8.54 ± 0.32.

With “TACTTTCAAAAGATCACACATATATATATATATATA [CACACA_site5630]”, the “gcPBM binding intensity (ln)” value amounted to 10.39 ± 0.085.

With “ATGACATGTTCTAAATGTACATTTTTTAACCCTTTT [XGTACX_site1858]”, the “gcPBM binding intensity (ln)” value amounted to 8.77 ± 0.5.

In the case of “ATAAATAAATAAGTACATATATATATGTATATATAT [TGCATGCA_negctrl_site223]”, the “gcPBM binding intensity (ln)” value came out at 8.775 ± 0.021.

Take “TATACAAGTATATAGGTGCATATATAAGTATATATT [GTGCAC_site9994]”: the “gcPBM binding intensity (ln)” value came out at 8.6 ± 0.11.

For the sequence “TATGGTTACATTATATGTACTAAACGAATATTTTTA [XGTACX_site5694]”, the “gcPBM binding intensity (ln)” value turned out to be 8.24 ± 0.39.

On to “ATATATTATATTATATGTACTTAAAAAAGTGCAAAG [XGTACX_site318]”, for which the “gcPBM binding intensity (ln)” value is 8.44 ± 0.23.

Turning to “TATATTCAATTTTTGGTGCGTAAATTAATACAAACA [GTGCAC_site9764]”, the “gcPBM binding intensity (ln)” value was determined as 8.74 ± 0.13.

Consider “AGAGAGAACGGTATAACATGCGATAAATTTTAGAAG [TGCATGCA_site357]”, for which the “gcPBM binding intensity (ln)” value came out at 9.01 ± 0.45.

As for “TTTTTTCAATAAATAATCGTATATTGAATAATAATA [CACACA_negctrl_site822]”, the “gcPBM binding intensity (ln)” value was found to be 8.3 ± 0.74.

On to “TATATGTCCATATTTCCACACACATATTATTTTTAT [CACACA_site9266]”, for which the “gcPBM binding intensity (ln)” value was found to be 8.82 ± 0.32.

For “CGGACATACTAACGGACACACGTAAGAAAAAAAAAG [CACACA_site4504]”, the “gcPBM binding intensity (ln)” value came out at 8.89 ± 0.41.

Consider “ATGCACGGAAAAATATGTACTTAATTTCAATAATAT [XGTACX_site8311]”, for which the “gcPBM binding intensity (ln)” value was found to be 8.8 ± 0.34.

As to “TATTAATTTTTCCTTTTTTTTTTACCCCTTTGTACA [CACACA_negctrl_site947]”, the “gcPBM binding intensity (ln)” value was determined as 8.62 ± 0.55.

“ATTTTAATTTTGTATACACACATTTGAATTATTAAT [CACACA_site3528]”: the “gcPBM binding intensity (ln)” value is 8.62 ± 0.44.

In the case of “AAATAATACATTCGTACTACACATATATATTAAATA [XGTACX_site7806]”, the “gcPBM binding intensity (ln)” value was 8.56 ± 0.41.

On to “TAAAATGTTATAAGAACATGCAATTCCTTTTATTAT [TGCATGCA_site408]”, for which the “gcPBM binding intensity (ln)” value came out at 8.26 ± 0.28.

In the case of “AATATATACATATATACACACACATATATATATATA [CACACA_site8907]”, the “gcPBM binding intensity (ln)” value was found to be 10.1 ± 0.42.

For “ATAATATGAGTCCCACAAAATAGACCATACGAATAT [CACACA_negctrl_site50]”, the “gcPBM binding intensity (ln)” value was 8.64 ± 0.34.

Turning to TATAAATTTATACCAGTGCATTTTGAAATATATATA, the “gcPBM binding intensity (ln)” value was determined as 8.84 ± 0.26.

As to “TGGAACCATAAAAAGTGTACACATATAAAAAATATG [XGTACX_site96]”, the “gcPBM binding intensity (ln)” value came to 8.62 ± 0.33.

As to “AAAAAAAAGTTATATACACACATATAAATATAAATA [CACACA_site6683]”, the “gcPBM binding intensity (ln)” value was found to be 8.5 ± 0.55.

With “TTTTTTTTTTTTTGAACACACATTATTAACTTTTAT [CACACA_site6281]”, the “gcPBM binding intensity (ln)” value was 8.3 ± 0.49.

On to “CGCGAACATACATACACACACATATATATATATGTA [CACACA_site205]”, for which the “gcPBM binding intensity (ln)” value turned out to be 8.8 ± 0.54.

For the sequence “TATATATTTTATATATGTACATATTTATATGTTTCT [XGTACX_site1818]”, the “gcPBM binding intensity (ln)” value was 8.31 ± 0.34.

Regarding “CATGTAAAATATTAAAGTACATGATTATATATATAT [XGTACX_site7486]”, the “gcPBM binding intensity (ln)” value was determined as 9.76 ± 0.2.

For the sequence “AAAAATATTAAAAGGCGTACAATACCTGTATGCAAC [XGTACX_site6069]”, the “gcPBM binding intensity (ln)” value was found to be 8.49 ± 0.23.

For “AGCTAAAATATTTTTGCACACGATTTTTTTTTTTTT [CACACA_site1140]”, the “gcPBM binding intensity (ln)” value was determined as 8.47 ± 0.36.

Turning to “TATATTTATATAATATGTACATATTTTTTAATATTT [XGTACX_site3834]”, the “gcPBM binding intensity (ln)” value amounted to 8.28 ± 0.3.

Turning to “TATTTTATTTTCCGAAGTACAAAAGCAAAAAAAAAC [XGTACX_site103]”, the “gcPBM binding intensity (ln)” value was found to be 8.92 ± 0.41.

“TTGCATCTATTTTTGAGTACACAATGAGAATAATTA [XGTACX_site7171]”: the “gcPBM binding intensity (ln)” value is 8.51 ± 0.33.

In the case of “AAAAATAAATATACATGTACATAATAATAATATATA [XGTACX_site8359]”, the “gcPBM binding intensity (ln)” value was determined as 8.61 ± 0.28.

Regarding “TTTGAAAAAAAATATTGTACACGTGAATAAAGTATT [XGTACX_site644]”, the “gcPBM binding intensity (ln)” value stood at 8.96 ± 0.43.
